Test results as given in PubChem BioAssay AID652106 (National Center for Advancing Translational Sciences (NCATS), 2013).
In all, about 370,000 compounds went through this assay and about 500 (0.14%) were called active. Inconclusive means that the source gave no clear call. Such entries were picked first, then a sample of the others. Calls follow the shape of the dose curve; as a rule, active = well fitted activation curve with a large enough effect; inconclusive = small, poorly fitted or top-dose-only effect; inactive = no such curve, though single readings can be large or run the other way. Potencies of inconclusive entries are left out as doubtful fits.

Test: qHTS of alpha-syn Inhibitors; also: nearly all actives have a fitted effect of over 65% in size; as to growth rescue (activation): % of control where 0% means no effect
Settings: Yeast expressing alpha-synuclein, BacTiter-Glo, 24 h; Potency: growth rescue unless noted; growth rescue (activation): at 46.1 µM (top of the series) unless noted
Outline: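 Rescue of yeast growth: cells expressing toxic alpha-synuclein, induced in galactose at OD600 0.02, incubated with compound 24 h at 30 C. ATP luminescence quantified growth; inhibitors of toxicity appear as activators.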
Potency is read from the fitted curve at half-maximal effect; tags tell the direction and shape of the fitted curve.

| SMILES | Potency | growth rescue (activation) |
| --- | --- | --- |
| Nc1[nH]nc2nc(-c3ccccc3)[nH]c(=O)c12 | inactive | – |
| CSc1nc(SCc2ccccc2)[nH]c(=O)n1 | inconclusive [activator, single point] | – |
| O=C(COC(=O)c1cccnc1Cl)Nc1ncc(Cl)cc1Cl | inactive | – |
| COc1cccc(C=O)c1OCCN1C(=O)c2ccccc2C1=O | inactive | – |
| O=C1CC[C@@H](CN(Cc2ccccn2)Cc2nc(-c3ccc(C(F)(F)F)cc3)no2)N1 | inconclusive [activator, single point] | – |
| Cc1csc(N/N=C/c2ccccn2)n1 | inconclusive [activator, single point] | – |
| Cc1ccc(S(=O)(=O)N2CCCCC2)cc1NC(=O)c1cncc(Br)c1 | inactive | – |
| COc1ccc(OC)c(NC(=O)CSCc2cnn(-c3ccccc3)c2-n2cccc2)c1 | inconclusive [activator, single point] | – |
| CC1(C(=O)NCc2ccccc2Br)CCN1C(=O)CCc1ccc(Cl)cc1Cl (configuration not stated) | inconclusive [activator, single point] | – |
| O=C(N/N=C(\c1ccccc1)c1cccnc1)c1cccc(F)c1 | – | inconclusive: -61.9% [activator] |
| COc1ccc(CCNC(=O)[C@H](C)N2C(=O)N3CCc4c([nH]c5ccccc45)[C@@]3(C)C2=O)cc1 | inconclusive [activator, single point] | – |
| CCCCC[C@@H](C)N1C[C@H](COCc2ccccc2)Oc2cc(N3CC[C@@H](O)C3)ccc2S1(=O)=O | inactive | – |
| CCOc1ccc(N2C(=O)CC(SC(=NC)Nc3ccc4c(c3)OCO4)C2=O)cc1 (configuration not stated) | inconclusive [activator, single point] | – |
| COc1ccc(CCNC(=O)c2c(C)nn(-c3ccc(F)cc3)c2-n2cccc2)cc1OC | inconclusive [activator, single point] | – |
| O=C(/C=C/c1cccs1)NC(=S)NNC(=O)Cc1cccs1 | inconclusive [activator, single point] | – |
| O=C(NN=Cc1c(O)ccc2ccccc12)C1CC1 | inconclusive [activator, single point] | – |
| CCN(CC)c1nc(SCC(=O)O)nc(N(CC)CC)n1 | inactive | – |
| CCOC(=O)CNC(=O)C1CCCCC1 | inconclusive [activator, single point] | – |
| COc1ccc(N2CSC3=C(C#N)C(c4cc(OC)ccc4OC)CC(=O)N3C2)c(OC)c1 (configuration not stated) | inconclusive [activator, single point] | – |
| Cc1ccc2cc(C#N)c(N3CCN(C)CC3)nc2c1 | inconclusive [activator, single point] | – |
| COc1cc(C)c(S(=O)(=O)Nc2ccccc2F)cc1C | inconclusive [activator, single point] | – |
| O=C(Cc1cccc2ccccc12)N1CCCc2ccccc21 | inconclusive [activator, partial curve] | – |
| O=C(Nc1ccc(Cl)cc1)c1cc2nc(-c3ccco3)cc(C(F)(F)F)n2n1 | inactive | – |
| Cc1cccc(NC(=O)C2CCCN(C(=O)Nc3ccccc3)C2)c1C (configuration not stated) | inactive | – |

| SMILES | Potency | growth rescue (activation) |
| --- | --- | --- |
| O=C(/C=C/c1ccccn1)c1ccc(Br)cc1O | – | inconclusive: -46.8% [activator] |
| Oc1cccc2ccc(/C=C/c3ccccc3Cl)nc12 | inconclusive [activator, full curve] | – |
| O=C(O)c1cc(-c2ccc(/C=C3\NC(=O)N(c4ccc(Cl)cc4)C3=O)o2)ccc1Cl | inconclusive [activator, single point] | – |
| COc1ccc(C2c3c(c(C)c(C)oc3=O)Oc3c(C)c(C)oc(=O)c32)cc1 | inconclusive [activator, single point] | – |
| c1ccc(-c2csc(Nc3ccccn3)n2)cc1 | inactive | – |
| Cn1cc(SCC(=O)N2CCN(c3ccccc3)CC2)c2ccccc21 | inconclusive [activator, single point] | – |
| Cc1ccc(OCCN2C(=O)C(=O)c3cccc(C)c32)cc1 | inconclusive [activator, single point] | – |
| CCN(CC)S(=O)(=O)c1cc(OC)ccc1N=Nc1ccc(O)c2ncccc12 | inconclusive [activator, single point] | – |
| O=C(Nc1ccc2c(c1)OCO2)c1ccccn1 | inconclusive [activator, single point] | – |
| CCOc1ncccc1C(=O)OCC(=O)Nc1nnc(-c2ccccc2)o1 | inconclusive [activator, single point] | – |
| Cc1cc(=S)c2ccccc2[nH]1 | inconclusive [activator, single point] | – |
| COC(=O)C[C@H]1C[C@@H]2c3cc(NC(=O)Nc4ccccc4)ccc3O[C@@H]2[C@@H](CO)O1 | inconclusive [activator, single point] | – |
| COc1ccc(N(C(=O)c2ccncc2)S(=O)(=O)c2ccc(OC)c(OC)c2)cc1 | inconclusive [activator, single point] | – |
| C[C@@]12C(=O)N(c3cccc(F)c3)C(=O)N1[C@H](c1ccc(F)cc1)[C@@H]1C(=O)N(C3CCCCC3)C(=O)[C@@H]12 | inconclusive [activator, single point] | – |
| CCOc1ccc(-c2cncc3nccn23)cc1 | inactive | – |
| Cc1ccc2nc(NCc3ccccc3)c(C=NCc3ccccc3)c(=O)n2c1 | inactive | – |
| CCc1ccccc1NC(=O)CSc1ncc(S(=O)(=O)c2ccccc2)c(=O)[nH]1 | active: 3.98 µM | – |
| CCc1cc(C(=O)Nc2nc(-c3ccccn3)cs2)sc1C | inconclusive [activator, single point] | – |
| CC1CCN(c2cc(N)c(Cl)cc2[N+](=O)[O-])CC1 | inconclusive [activator, single point] | – |
| Cc1onc(-c2c(Cl)cccc2Cl)c1C(O)c1ccccc1 (configuration not stated) | inactive | – |
| Cc1ccc(Cl)cc1N1CCN(CCCNC(=O)c2nnc(Cc3cccc(Cl)c3)o2)CC1 | inconclusive [activator, single point] | – |
| CCOc1ccc(NC2CCN(C(C)=O)CC2)cc1 | inconclusive [activator, single point] | – |
| Cc1[nH]n(-c2ccccc2)c(=O)c1/C=N/N1C(=O)c2ccc3c4c(ccc(c24)C1=O)CC3 | active: 25.1 µM | – |
| Nc1ccc2oc(CCc3ccccc3)nc2c1 | inactive | – |

| SMILES | Potency | growth rescue (activation) |
| --- | --- | --- |
| CCCN(CC(=O)Nc1ccc(Cl)cc1Cl)C(=O)/C=C/c1cc(OC)ccc1OC | inactive | – |
| COc1cc(C)c(S(=O)(=O)NOCc2ccccc2)c(C)c1C | inconclusive [activator, single point] | – |
| O=C(NCc1cccs1)c1cnc2ccccn2c1=O | inactive | – |
| CSCc1nnc(NC(=O)c2ccc(S(=O)(=O)N3CCCCC3C)cc2)o1 (configuration not stated) | inconclusive [activator, single point] | – |
| O=c1ccc(N=Nc2ccccc2)ccc1O | inactive | – |
| CN(C)c1ccc(/C=C/c2cccc3cc4ccccc4nc23)cc1 | inactive | – |
| CCCCCOC(=O)Nc1ccc(S(=O)(=O)Nc2cccc([N+](=O)[O-])c2)cc1 | inactive | – |
| CC(=O)N1CCC(O)(c2cccc(C(F)(F)F)c2)CC1 | inactive | – |
| COC(=O)c1cc(-c2c(C)oc3cc(OC)ccc3c2=O)c(C)o1 | inactive | – |
| O=C(Oc1coc(CSc2ncccn2)cc1=O)c1ccc(Br)o1 | inconclusive [activator, single point] | – |
| C=C1C(=O)c2sccc2C(c2ccc(OC)c(OC)c2)C1COC(C)=O (configuration not stated) | inconclusive [activator, full curve] | – |
| CCC(=O)OCCNc1cc(SCCC(=O)OC)c2nonc2c1[N+](=O)[O-] | inconclusive [activator, partial curve] | – |
| COc1ccc2c(c1)C1OCCC1C(c1ccco1)N2 (configuration not stated) | inactive | – |
| CCCOc1ccc(C2/C(=C(/O)c3ccc(F)cc3)C(=O)C(=O)N2CCCN(C)C)cc1 (configuration not stated) | inconclusive [activator, single point] | – |
| CC1=C(C(=O)N2CCOCC2)CC(CC(=O)NCc2cccs2)C(=O)N1Cc1ccc(F)cc1 (configuration not stated) | inconclusive [activator, single point] | – |
| S=c1[nH]c(=S)c2[nH]cnc2[nH]1 | inactive | – |
| Cc1cccc(C)c1OCC(=O)NCC1COc2ccccc2O1 (configuration not stated) | inactive | – |
| O=C(COC(=O)c1ccc(CN2CCCC2=O)cc1)Nc1ccc(F)cc1 | inconclusive [activator, single point] | – |
| CCCn1c(CN2CCN(C(=O)OCC)CC2)nc2c1c(=O)n(C)c(=O)n2C | inconclusive [activator, single point] | – |
| CCn1c(Cn2nnc(-c3ccccc3)n2)nnc1SCc1ccc(Cl)c(Cl)c1 | inconclusive [activator, single point] | – |
| Cc1[nH]n(-c2ccccc2)c(=O)c1/C=N/N1C(=O)c2cccc3cccc(c23)C1=O | inconclusive [activator, single point] | – |
| CCS(=O)c1ccccc1C(=O)O (configuration not stated) | inconclusive [activator, single point] | – |
| Cc1cc(C)nc(SCc2cc(=O)c(OC(=O)c3ccco3)co2)n1 | inconclusive [activator, partial curve] | – |
| CN(C)S(=O)(=O)c1ccc(C(=O)OCn2nnc3ccccc3c2=O)cc1 | inconclusive [activator, single point] | – |
